SMILES strings stand for the structures. Screen size: about 310,000 compounds; about 14,000 (4.5%) showed an effect of 50% or more. The effect is printed as a negative number. The list shows a part of the results.
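Also: peak tail current of the secondary pulse compared with the same well before compound.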

Chain of human ether-à-go-go-related gene (hERG) potassium channel (Q12809 whole entry, looked up): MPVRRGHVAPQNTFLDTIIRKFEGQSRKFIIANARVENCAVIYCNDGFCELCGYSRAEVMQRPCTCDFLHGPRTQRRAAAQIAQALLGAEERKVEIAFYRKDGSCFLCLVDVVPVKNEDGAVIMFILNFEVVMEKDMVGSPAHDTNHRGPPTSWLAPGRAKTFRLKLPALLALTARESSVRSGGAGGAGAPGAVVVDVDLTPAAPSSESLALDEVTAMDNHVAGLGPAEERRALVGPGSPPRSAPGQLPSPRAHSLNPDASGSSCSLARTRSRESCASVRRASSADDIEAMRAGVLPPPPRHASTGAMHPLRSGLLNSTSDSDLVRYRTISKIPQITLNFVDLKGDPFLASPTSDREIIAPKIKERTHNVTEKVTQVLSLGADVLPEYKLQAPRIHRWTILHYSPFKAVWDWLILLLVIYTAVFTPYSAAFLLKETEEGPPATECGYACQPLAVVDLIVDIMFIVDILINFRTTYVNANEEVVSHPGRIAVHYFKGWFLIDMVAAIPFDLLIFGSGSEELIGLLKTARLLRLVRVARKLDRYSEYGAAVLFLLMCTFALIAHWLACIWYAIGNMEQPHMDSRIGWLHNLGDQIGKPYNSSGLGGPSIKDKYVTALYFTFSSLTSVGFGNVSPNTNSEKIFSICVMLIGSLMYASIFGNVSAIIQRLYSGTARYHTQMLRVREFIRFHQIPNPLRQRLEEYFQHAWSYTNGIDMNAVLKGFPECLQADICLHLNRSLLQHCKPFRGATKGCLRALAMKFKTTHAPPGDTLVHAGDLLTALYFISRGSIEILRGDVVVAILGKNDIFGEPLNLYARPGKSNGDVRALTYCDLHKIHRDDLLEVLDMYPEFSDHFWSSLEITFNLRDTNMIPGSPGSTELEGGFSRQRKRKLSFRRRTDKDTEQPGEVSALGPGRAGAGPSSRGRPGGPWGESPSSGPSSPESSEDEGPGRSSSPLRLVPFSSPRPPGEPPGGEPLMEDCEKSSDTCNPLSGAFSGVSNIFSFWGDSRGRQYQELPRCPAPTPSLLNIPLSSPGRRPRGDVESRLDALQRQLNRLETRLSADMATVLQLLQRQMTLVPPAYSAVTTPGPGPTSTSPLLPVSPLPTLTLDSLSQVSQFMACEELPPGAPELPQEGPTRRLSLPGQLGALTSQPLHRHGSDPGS

This assay addresses human ether-à-go-go-related gene (hERG) potassium channel (human, UniProt Q12809). The experiment in a line: primary screen, population patch clamp on CHO cells stably expressing hERG.
With `O=C(NCCNC(=O)c1ccc(Cl)cc1Cl)c1cnccn1`, the “hERG current change (%, negative = inhibition) at 10uM” value was -8.98%.

For `O=C(NCCc1ccccc1)C1CCN(S(=O)(=O)c2cccs2)CC1`, the “hERG current change (%, negative = inhibition) at 10uM” value is -2.14%.

As for `COC(=O)C(N)CCCCN.Cl` (centres unmarked), the “hERG current change (%, negative = inhibition) at 10uM” value came out at 16.4%.

Turning to `CS(=O)c1ccccc1COC(=O)Nc1ccccc1` (centres unmarked), the “hERG current change (%, negative = inhibition) at 10uM” value was 9.76%.

As to `Cc1nn(C)c(C(=O)Nc2ccc3c(c2)OCO3)c1[N+](=O)[O-]`, the “hERG current change (%, negative = inhibition) at 10uM” value amounted to 6.98%.

Consider `Cc1oc2ccc(OCC(N)=O)cc2c1C(=O)OC(C)C`, for which the “hERG current change (%, negative = inhibition) at 10uM” value is -10.3%.

Take `COC(=O)C1CCN(C(=O)COC(=O)COc2ccc(C#N)cc2)CC1`: the “hERG current change (%, negative = inhibition) at 10uM” value is on record as -12.3%.

For `N=c1oc2ccc(Cl)cc2cc1C(=O)Nc1ccc(F)cc1`, the “hERG current change (%, negative = inhibition) at 10uM” value came out at 29.6%.

Consider `COc1cc(/C=C/C(=O)Nc2ccc(C(C)=O)cc2)cc(OC)c1OC`, for which the “hERG current change (%, negative = inhibition) at 10uM” value was 10.1%.

For `C=CCn1c(O)c(C(C)=NCCN2CCOCC2)c(=O)[nH]c1=O`, the “hERG current change (%, negative = inhibition) at 10uM” value is -10.5%.

As to `CCN(CC)C(=O)c1oc2ccc(S(=O)(=O)N3CCCCCC3)cc2c1C`, the “hERG current change (%, negative = inhibition) at 10uM” value is reported as -5.58%.

As to `Cc1cc(Nc2ccc(Br)cc2)n2nc(C)nc2n1`, the “hERG current change (%, negative = inhibition) at 10uM” value is -42.5%.

With `Cc1nc(C)c(C(=O)N2CCCC(C(=O)c3ccc4ccccc4c3)C2)s1` (centres unmarked), the “hERG current change (%, negative = inhibition) at 10uM” value is -23%.

For the compound `CC1CCC(NC(=O)CCS(=O)(=O)c2ccc3c(c2)oc(=O)n3C)CC1` (centres unmarked), the “hERG current change (%, negative = inhibition) at 10uM” value is 5.15%.

For `O=C(Cn1nnc(-c2ccccc2F)n1)Nc1ccc(S(=O)(=O)NC2CCCC2)cc1`, the “hERG current change (%, negative = inhibition) at 10uM” value is recorded as 0.594%.

As to `CCOc1ccc(NC(=O)c2sc3nc4n(c(=O)c3c2C)CCC4)cc1`, the “hERG current change (%, negative = inhibition) at 10uM” value is on record as 20%.

As to `O=C(O)c1ccc(N/N=C/c2ccncc2)cc1`, the “hERG current change (%, negative = inhibition) at 10uM” value was determined as 12.4%.

Turning to `Cc1nc2ccccn2c1/C(O)=C1\C(=O)C(=O)N(CCN2CCOCC2)C1c1ccncc1` (centres unmarked), the “hERG current change (%, negative = inhibition) at 10uM” value amounted to 15.9%.

As to `CCOC(=O)C1(Cc2ccc(OC)cc2)CCN(C(=O)c2cc(C)nn2C)CC1`, the “hERG current change (%, negative = inhibition) at 10uM” value is given as -40.5%.

For the compound `COCCCn1c(O)c(/C=C2\N=C(C#N)C(=Nc3ccc(C)cc3)O2)sc1=S`, the “hERG current change (%, negative = inhibition) at 10uM” value stood at 15.8%.

`CN1CCC2(CC1)N=C(c1ccc(F)cc1)C(=S)N2`: the “hERG current change (%, negative = inhibition) at 10uM” value is -13.7%.

As for `COc1ccccc1NC(=O)CSc1nnc(CNC(=O)c2ccco2)n1C`, the “hERG current change (%, negative = inhibition) at 10uM” value amounted to 19.2%.

On to `COc1ccc(OC)c(S(=O)(=O)N2CCCCCC2)c1`, for which the “hERG current change (%, negative = inhibition) at 10uM” value was 1.03%.

With `O=C(NCCc1ccncc1)Nc1cccc(Cl)c1`, the “hERG current change (%, negative = inhibition) at 10uM” value is listed as -3.75%.

For `CCCCCOC(=O)Cc1c(C)nc(-c2ccccc2)[nH]c1=O`, the “hERG current change (%, negative = inhibition) at 10uM” value is on record as -1.68%.

In the case of `CNC(=O)CN1C(=O)COc2ccc(S(=O)(=O)N3CCCCCC3)cc21`, the “hERG current change (%, negative = inhibition) at 10uM” value worked out at 17.2%.

Regarding `O=C1C2C3C=CC(C3)C2C(=O)N1c1n[nH]c(CCc2ccccc2)n1` (centres unmarked), the “hERG current change (%, negative = inhibition) at 10uM” value amounted to 3.66%.

On to `CN(C(=O)COC(=O)C1CCN(S(=O)(=O)c2c(Cl)cccc2Cl)CC1)c1ccccc1`, for which the “hERG current change (%, negative = inhibition) at 10uM” value is -34.1%.

Take `CCOc1ccc(NC(N)=O)cc1`: the “hERG current change (%, negative = inhibition) at 10uM” value turned out to be 7.46%.

With `Cn1c(=O)c2c(nc(Oc3ccccc3)n2C)n(C)c1=O`, the “hERG current change (%, negative = inhibition) at 10uM” value is recorded as -0.252%.

In the case of `O=C(NCc1ccccc1)c1ccc2c(=O)[nH]c3c(C(=O)NCC4CCCO4)sc(=S)n3c2c1` (centres unmarked), the “hERG current change (%, negative = inhibition) at 10uM” value came to 4.56%.

On to `COc1ccc(OC)c(S(=O)(=O)N2CCC(C(=O)NC3CCCC3)CC2)c1`, for which the “hERG current change (%, negative = inhibition) at 10uM” value came out at 8.63%.

Consider `Brc1ccc(-c2nnc(-c3ccc4c(c3)OCO4)o2)o1`, for which the “hERG current change (%, negative = inhibition) at 10uM” value is 9.18%.

For the compound `Cc1c(C(=O)NCCSCc2ccccc2)cccc1[N+](=O)[O-]`, the “hERG current change (%, negative = inhibition) at 10uM” value was determined as 8.73%.

Take `COCCn1c(SCC(=O)Nc2ccc3c(c2)OCCO3)nc2c(c1=O)SC(C)C2` (centres unmarked): the “hERG current change (%, negative = inhibition) at 10uM” value was -15.2%.

Take `Cc1nc2ccccn2c(=O)c1CCN1CCC(C(=O)c2ccc(F)cc2)CC1`: the “hERG current change (%, negative = inhibition) at 10uM” value is recorded as -73.3%.

As to `CC(C)C[C@H](NC(=O)NCc1ccc(Cl)cc1)C(=O)O`, the “hERG current change (%, negative = inhibition) at 10uM” value was 2.18%.

Turning to `O=C(NC(=O)c1ccc(Cl)cc1)OC1CCCCC1`, the “hERG current change (%, negative = inhibition) at 10uM” value is -10.1%.

With `O=C(Nc1ccc([N+](=O)[O-])cc1)C1CC12CCC2` (centres unmarked), the “hERG current change (%, negative = inhibition) at 10uM” value is listed as -6.99%.

Regarding `COc1ccc(C(=O)N(C)C2CCCCC2)cc1S(=O)(=O)N1CCOCC1`, the “hERG current change (%, negative = inhibition) at 10uM” value is recorded as -3.28%.

`O=C(CC1CCCC1)NCCS(=O)(=O)N1CCN(c2ccccc2F)CC1`: the “hERG current change (%, negative = inhibition) at 10uM” value was -3.83%.

As for `CCN(CC)c1ccc(/C=N/NC(=O)C(O)(c2ccccc2)c2ccccc2)o1`, the “hERG current change (%, negative = inhibition) at 10uM” value is -8.38%.

For `CCOc1cc(CN2CCc3c([nH]c4ccccc34)C2)ccc1OC`, the “hERG current change (%, negative = inhibition) at 10uM” value is recorded as -19%.

Take `CCN(CC)c1ccc(/C=C(\C#N)C(N)=S)cc1`: the “hERG current change (%, negative = inhibition) at 10uM” value stood at 6.62%.

The record behind these values is PMC4336329 (PLoS ONE, 2015).
